# Data from publication PMC4336329 (PLoS ONE, 2015).
# In all, about 310,000 compounds went through this assay and about 2,200 (0.71%) showed an effect of 50% or more. Effects have a minus sign here. This is one part of the list.
# Target: human ether-à-go-go-related gene (hERG) potassium channel (human, UniProt Q12809)
# Test: primary screen, population patch clamp on CHO cells stably expressing hERG
# Chain of human ether-à-go-go-related gene (hERG) potassium channel (Q12809 whole entry, looked up): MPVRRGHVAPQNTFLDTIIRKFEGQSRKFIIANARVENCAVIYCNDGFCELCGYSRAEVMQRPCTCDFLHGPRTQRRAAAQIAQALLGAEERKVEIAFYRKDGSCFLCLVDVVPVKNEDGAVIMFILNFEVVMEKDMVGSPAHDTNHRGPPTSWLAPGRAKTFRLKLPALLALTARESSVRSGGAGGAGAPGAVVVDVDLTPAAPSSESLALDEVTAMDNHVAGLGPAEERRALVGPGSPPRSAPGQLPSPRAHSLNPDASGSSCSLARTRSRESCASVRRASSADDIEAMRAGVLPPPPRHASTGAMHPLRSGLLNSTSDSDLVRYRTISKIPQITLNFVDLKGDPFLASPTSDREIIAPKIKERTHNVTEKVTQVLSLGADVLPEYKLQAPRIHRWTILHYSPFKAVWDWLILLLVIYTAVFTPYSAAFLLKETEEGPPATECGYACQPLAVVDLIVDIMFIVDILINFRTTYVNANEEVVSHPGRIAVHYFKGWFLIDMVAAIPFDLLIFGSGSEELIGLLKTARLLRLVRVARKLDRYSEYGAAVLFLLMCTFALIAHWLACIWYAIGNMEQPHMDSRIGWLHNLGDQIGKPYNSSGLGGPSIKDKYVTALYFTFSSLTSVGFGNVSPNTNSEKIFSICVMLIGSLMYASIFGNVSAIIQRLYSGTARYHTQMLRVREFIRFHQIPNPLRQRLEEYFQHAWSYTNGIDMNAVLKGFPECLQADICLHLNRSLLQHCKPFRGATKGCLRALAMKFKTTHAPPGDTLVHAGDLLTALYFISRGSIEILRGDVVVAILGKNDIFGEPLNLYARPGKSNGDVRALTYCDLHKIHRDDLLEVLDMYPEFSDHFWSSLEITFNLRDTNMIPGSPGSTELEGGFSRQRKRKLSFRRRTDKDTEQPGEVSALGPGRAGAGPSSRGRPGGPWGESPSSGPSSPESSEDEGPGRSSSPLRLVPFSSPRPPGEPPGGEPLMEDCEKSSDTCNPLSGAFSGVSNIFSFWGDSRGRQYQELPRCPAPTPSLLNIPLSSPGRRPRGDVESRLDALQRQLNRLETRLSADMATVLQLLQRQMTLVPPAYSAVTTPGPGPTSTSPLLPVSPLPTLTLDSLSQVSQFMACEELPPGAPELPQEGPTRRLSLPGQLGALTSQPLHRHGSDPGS
row,SMILES,"hERG current change (%, negative = inhibition) at 1uM [%]"
1,COc1ccc2nc3oc(C(=O)Nc4ccc(OC)c(OC)c4)cc3cc2c1,16
2,FC(F)(F)c1ccc(Oc2ccc(Cl)cc2Br)nc1,19.6
3,CC(=O)c1c(C)[nH]c(C(=O)OCC(=O)Nc2ncc(Cl)c(C)c2Cl)c1C,-3.13
4,CCc1ccc(N(CC(=O)NC(C)(C)C)C(=O)CCC(=O)Nc2ccccn2)cc1,16.1
5,CCc1ccc2[nH]c(=O)c(C(c3nnnn3CC3CCCO3)N3CCN4CCCC4C3)cc2c1 (stereo not drawn),3.1
6,COC(=O)c1sccc1NC(=O)/C=C/c1ccc(Cl)cc1,-1.17
7,O=S(=O)(c1cccc(F)c1)N1CCN(Cc2ccc3c(c2)OCO3)CC1,-9.49
8,Cc1csc(=O)n1CCC(=O)OCc1nnc(-c2ccccc2)o1,3.1
9,CCCCNC(=O)c1onc(CSc2ccc(F)cc2)c1C(=O)NCCCC,10.9
10,COc1ccc(C(=O)/C=C/c2ccccc2OC)c(OC(=O)c2ccc([N+](=O)[O-])cc2)c1,9.93
11,COc1ccc(CC(=O)N2CCCc3ccccc32)cc1,8.01
12,CC(Sc1ccc2nnc(-c3ccc(F)cc3)n2n1)C(=O)O (stereo not drawn),4.39
13,COc1ccc(CNC(=O)C(C)NCc2ccccc2Cl)cc1.Cl (stereo not drawn),10.5
14,c1coc(-c2nnc(SCc3cn4ccccc4n3)o2)c1,-2.53
15,CNC(=S)N1CCN(c2nc3ccccc3s2)CC1,9.23
16,COc1ccc(S(=O)(=O)Nc2cccc(-c3ccc4nncn4n3)c2)c(OC)c1,-9.85
17,COc1cc(OC)cc(C(=O)N[C@H](C(=O)OCC(=O)Nc2cccc(F)c2)C(C)C)c1,3.74
18,O=C(c1cccs1)N1CCCC(c2nc3c(nnn3Cc3ccccc3)c(=O)[nH]2)C1 (stereo not drawn),-6.64
19,COc1ccc(CNC(=O)CN2CCN(S(=O)(=O)c3ccccc3)CC2)cc1,6.11

row,SMILES,"hERG current change (%, negative = inhibition) at 1uM [%]"
1,C/C(=N/OC(=O)c1ccc(C(F)(F)F)cc1)c1oc(C)nc1C,14.3
2,CCCCN(CCCC)C1=Nc2ccccc2N/C1=C(/C#N)C(=O)OCC,2.26
3,COc1ccccc1/C=C/c1nc(S(=O)(=O)c2ccccc2)c(N2CCC(C(N)=O)CC2)o1,6.21
4,CC(C)n1cnc2c(Nc3cccc(Cl)c3)nc(NCCCO)nc21,10.5
5,Cn1cnnc1SCC(=O)NCCc1ccccc1,17.6
6,COc1cc(NC(=O)c2ccc(C(=O)c3ccccc3)cc2)cc(OC)c1OC,13.5
7,Cc1csc(NC(=O)CSc2nnc(Cc3cccn3C)n2CCc2ccccc2)n1,3.72
8,COc1cccc(CN(CC(=O)NC2CCCCC2)C(=O)c2csnn2)c1,12.9
9,O=C(NNC(=S)Nc1ccc(Cl)cc1)c1ccccc1OC(F)F,9.26
10,NC(=O)C1CCN(C2CC(=O)N(Cc3ccc(N4CCCC4=O)cc3)C2=O)CC1 (stereo not drawn),8.17
11,Cn1c(C(=O)NCCN2CCOCC2)cc2c(=O)n3ccccc3nc21,15
12,CCOC(=O)c1c(NC(=O)/C=C/c2ccco2)sc(C)c1C,10.7
13,Cc1nnc(SCC(=O)NC2CCCc3c2cnn3-c2ccc(F)cc2F)o1 (stereo not drawn),11.7
14,CN1CCN(S(=O)(=O)c2ccc(Cl)c3ccccc23)CC1,13.6
15,CC(CN1CCCCC1)OC(=O)c1ccc2c(c1)OCCO2.Cl (stereo not drawn),-2.94
16,CNCCc1ccccc1,18.3
17,Cc1ccccc1NC(=S)NC(=O)/C=C/c1ccco1,17.7
18,FC(F)(F)c1cccc(N2CCN(Cc3cccnc3)CC2)c1,3.56
19,CCc1c(C)nc2ncnn2c1NCCc1ccc(OC)c(OC)c1,3.53

row,SMILES,"hERG current change (%, negative = inhibition) at 1uM [%]"
1,CC(C)(C)n1cc(C(=O)c2ccccc2)cc1-c1ccccc1,7.6
2,CCC(=O)Nc1c(-c2cccs2)c(=O)c2ccccc2n1C,8.86
3,Fc1cccc2sc(Nc3nnc(-c4ccccc4)o3)nc12,10.5
4,CC(C)C[C@H](NC(=O)c1nc[nH]c1C(=O)NCc1ccccc1)C(=O)OCc1ccccc1,-3.93
5,Cc1ccccc1OCc1nnc(SCC(=O)Nc2ccc3c(c2)oc2ccccc23)n1C,10.6
6,CC(C)Cc1nc(N2CCC(C(N)=O)CC2)c2nnn(Cc3ccccc3)c2n1,24
7,COc1ccc(Nc2c3c(nc4ccccc24)CCC3)cc1.Cl,-14.5
8,Cc1c(C(=O)Nc2ccccn2)oc2ccc(Br)cc12,3.65
9,CCCc1cc(C(=O)N2CCCC(Nc3ccc(C)c(C)c3)C2)n(C)n1 (stereo not drawn),9.28
10,COc1ccc(N2C(=O)C3CCCN3C2c2ccc(C)cc2)cc1 (stereo not drawn),11.4
11,COc1ccc(OC)c(NC(=O)C2C3CCC(C3=C(C)C)C2C(=O)O)c1 (stereo not drawn),6.65
12,CC(=O)c1c[nH]c2ccc(C)cc2c1=O,-4.84
13,O=C(c1nn(Cc2ccccc2)c(=O)c2ccccc12)N1CCc2ccccc2C1,0.969
14,Cc1ccc(/C(O)=C/C(=O)C(=O)NNC(=O)C(O)(c2ccccc2)c2ccccc2)cc1,7.97
15,CC(CN1c2ccccc2Sc2ccccc21)N(C)C.Cl (stereo not drawn),-5.31
16,Cl.O=C(CNC1CCN(Cc2ccccc2)CC1)Nc1ccc(S(=O)(=O)N2CCCCC2)cc1,-14.6
17,Cc1cc(N2CCN(S(=O)(=O)c3ccc4ccccc4c3)CC2)n2ncnc2n1,-48.4
18,CNC(=O)C(NC(=O)Nc1ccc(C)cc1)C(C)(C)C (stereo not drawn),7.58
19,CCNC(=O)CN1C(=O)NC(Cc2ccccc2)(Cc2ccccc2)C1=O,3
